From article PMC4336329 (PLoS ONE, 2015)
About 14,000 (4.5%) of roughly 310,000 compounds showed an effect of 50% or more. The effect is printed as a negative number. Some of the results follow.

Biological target: human ether-à-go-go-related gene (hERG) potassium channel (human, UniProt Q12809)
Assay: primary screen, population patch clamp on CHO cells stably expressing hERG
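Further: peak tail current of the secondary pulse compared with the same well before compound.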

Sequence of human ether-à-go-go-related gene (hERG) potassium channel (Q12809 whole entry, looked up): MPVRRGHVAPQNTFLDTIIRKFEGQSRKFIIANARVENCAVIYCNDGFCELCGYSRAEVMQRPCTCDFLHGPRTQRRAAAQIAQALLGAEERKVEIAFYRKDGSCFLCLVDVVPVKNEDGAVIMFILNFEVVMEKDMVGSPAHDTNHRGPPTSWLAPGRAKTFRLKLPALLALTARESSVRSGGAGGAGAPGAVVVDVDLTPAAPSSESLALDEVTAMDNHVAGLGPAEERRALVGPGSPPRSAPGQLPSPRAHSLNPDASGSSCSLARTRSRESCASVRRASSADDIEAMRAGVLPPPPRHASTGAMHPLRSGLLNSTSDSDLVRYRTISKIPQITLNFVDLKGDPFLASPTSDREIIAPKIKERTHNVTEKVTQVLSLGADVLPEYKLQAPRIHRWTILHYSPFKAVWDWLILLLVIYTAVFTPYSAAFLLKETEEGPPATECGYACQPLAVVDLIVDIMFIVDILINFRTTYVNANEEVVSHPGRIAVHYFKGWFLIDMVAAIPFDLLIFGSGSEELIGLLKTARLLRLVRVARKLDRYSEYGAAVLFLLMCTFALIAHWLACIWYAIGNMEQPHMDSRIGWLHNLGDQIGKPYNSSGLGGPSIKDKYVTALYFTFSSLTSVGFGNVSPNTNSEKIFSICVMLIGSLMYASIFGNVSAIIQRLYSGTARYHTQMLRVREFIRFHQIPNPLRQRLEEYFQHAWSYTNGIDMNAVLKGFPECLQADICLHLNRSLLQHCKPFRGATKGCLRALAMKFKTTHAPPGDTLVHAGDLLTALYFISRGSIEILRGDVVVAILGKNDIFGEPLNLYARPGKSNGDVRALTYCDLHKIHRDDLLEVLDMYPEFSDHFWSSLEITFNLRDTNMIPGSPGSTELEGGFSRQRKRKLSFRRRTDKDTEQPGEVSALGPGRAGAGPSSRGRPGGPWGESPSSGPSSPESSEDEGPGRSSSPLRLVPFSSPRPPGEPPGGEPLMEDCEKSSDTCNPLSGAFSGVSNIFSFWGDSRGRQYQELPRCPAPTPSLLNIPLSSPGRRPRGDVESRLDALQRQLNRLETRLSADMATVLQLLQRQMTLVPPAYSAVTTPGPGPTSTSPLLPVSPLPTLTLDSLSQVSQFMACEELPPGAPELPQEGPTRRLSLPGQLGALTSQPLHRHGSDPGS

| SMILES | hERG current change (%, negative = inhibition) at 10uM |
| --- | --- |
| CCNC(=O)c1sc(=S)n(CC)c1N | 6.7% |
| COc1ccc(NC(=O)C2=Cc3ccccc3OC2)cc1 | 3.35% |
| COC(=O)COc1ccc(S(=O)(=O)NCCC2=CCCCC2)cc1 | -7.12% |
| COC(=O)c1ccc(Sc2ccc(F)cc2)c(N)c1 | 5.2% |
| CCCc1nc(SCC(=O)N2CCN(c3ccccc3)CC2)c2c(=O)n(C)c(=O)n(C)c2n1 | 5.67% |
| C[C@H]1O[C@H](O[C@H]2[C@H](O)[C@@H](O)[C@@H](O[C@H]3[C@H](O)[C@@H](O)C(O)O[C@@H]3CO)O[C@@H]2CO)[C@H](O)[C@@H](O)[C@@H]1N[C@H]1C=C(CO)[C@@H](O)[C@H](O)[C@H]1O (stereo partly shown) | -4.27% |
| O=C(NC1CCCCC1)c1ccc(NS(=O)(=O)c2cccc3cccnc23)cc1 | 16.3% |
| CSc1ccc2[nH]c(=O)cc(C)c2c1 | -1.46% |
| COc1ccc(NC(=O)Cn2c(=O)n(CC(=O)NCc3ccco3)c(=O)c3ccccc32)cc1 | 20% |
| CC(C)n1cc(C(=O)N2CCCC(N3CCN(c4ccc(F)cc4)CC3)C2)cn1 (stereo not shown) | -34.9% |
| Cc1ccc2c(c1)c1c3n2CCN(CC(O)CNC(C)C)C3CCC1.Cl.O (stereo not shown) | -11.4% |
| CC(C)NS(=O)(=O)c1ccc(CCC(=O)N2CCOCC2)cc1 | 2.25% |
| CN1CCN(Cc2c(C#N)c3ccccc3n2C)CC1 | -33.6% |
| Cc1cnc([N+](=O)[O-])n1CCOC(=O)NC(=O)c1c(F)cccc1F | 13.7% |
| Cc1ccccc1CNC(=O)C(=O)NCC1OCCCN1S(=O)(=O)c1cccs1 (stereo not shown) | 9.97% |
| COc1ccc(/C=C/c2nc(C)c(-c3ccccc3)c(=O)[nH]2)cc1OC | 12.1% |
| COC(CNC(=O)c1ccc2c(c1)ncn2-c1cc(C)cc(C)c1)OC | -22.5% |
| CC(CN1CCCCC1)OC(=O)COc1ccc(Cl)cc1.Cl (stereo not shown) | 19.9% |
| Cc1cccc(C)c1NC(=O)CN(C)CC(=O)c1c(N)n(Cc2ccccc2)c(=O)n(C)c1=O | 10.6% |
| CCOCCn1c(N2CCN(c3ccc(OC)cc3)CC2)nc2c1c(=O)n(C)c(=O)n2C | -26.8% |
| CCOC(=O)C(O)C1CCc2c([nH]c3ccc(C)cc23)C1=O (stereo not shown) | -5.97% |
| C#CCOCCOCCOCCNc1nc(N2CCN(C(=O)[C@H](CCC(=O)O)n3cc(C(N)CO)nn3)CC2)nc(N2CCN(C(=O)[C@H](Cc3ccc(O)cc3)n3cc(C(N)[C@H](C)CC)nn3)CC2)n1.Cl (stereo partly shown) | 9.89% |
